# Measurements published in PubChem BioAssay AID588342 (National Center for Advancing Translational Sciences (NCATS), 2011).
# Out of some 360,000 compounds screened, about 25,000 (6.9%) were called active. The shares of active, inactive and inconclusive entries below differ from those in the screen. The call rests on the fitted dose curve; in most records, active means well fitted inhibition curve with a large enough effect; inconclusive means small, poorly fitted or top-dose-only effect; inactive means flat fitted curve, though single readings scatter. Where the call is inconclusive, the potency comes from a doubtful curve fit.
# Biological target: Luciferin 4-monooxygenase (Photinus pyralis) (UniProt P08659)
# Test: qHTS profiling assay for firefly luciferase inhibitor/activator using purifed enzyme and Km concentrations of substrates (counterscreen for miR-21 project); further: nearly all actives have a fitted effect of over 55% in size;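 on activity change, negative = inhibition: plate controls were vehicle for no effect and reference inhibitor for full effect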
# Details: purified FLuc, luminescence inhibition; activity change, negative = inhibition: at 57.5 µM (top of the series)
# Summary of the method: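 Purified P. pyralis luciferase (10nM final) with 10uM D-luciferin and 10uM ATP (Km levels) in 50mM Tris acetate pH 7.5, 10mM Mg acetate, 0.01% Tween-20, 0.05% BSA; qHTS 6-point titration, ~60 µM downward; luminescence read.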
# Potency means the concentration at half of the fitted maximal effect; tags describe the fitted curve by direction and shape.
# UniProt P08659, sequence (P08659 whole entry, looked up): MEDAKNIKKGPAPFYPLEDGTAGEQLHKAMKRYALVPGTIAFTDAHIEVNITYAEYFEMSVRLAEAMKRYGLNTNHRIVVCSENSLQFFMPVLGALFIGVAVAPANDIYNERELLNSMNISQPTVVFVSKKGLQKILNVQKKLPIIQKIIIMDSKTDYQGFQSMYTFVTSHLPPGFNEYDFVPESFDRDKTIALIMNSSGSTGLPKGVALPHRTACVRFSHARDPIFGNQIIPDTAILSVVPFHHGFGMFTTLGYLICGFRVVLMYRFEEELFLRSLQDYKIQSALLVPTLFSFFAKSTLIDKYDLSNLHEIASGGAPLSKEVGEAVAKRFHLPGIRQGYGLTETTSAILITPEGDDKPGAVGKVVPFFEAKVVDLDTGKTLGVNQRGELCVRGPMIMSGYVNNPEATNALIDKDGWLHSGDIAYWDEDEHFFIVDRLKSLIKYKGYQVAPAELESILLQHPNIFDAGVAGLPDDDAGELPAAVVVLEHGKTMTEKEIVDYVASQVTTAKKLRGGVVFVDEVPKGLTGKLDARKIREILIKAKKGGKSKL
SMILES,Potency,"activity change, negative = inhibition"
O=C(Nc1nnc(CCc2ccccc2)s1)c1ccccc1F,"inconclusive: 21.3 µM [inhibitor, single point]",
COc1ccc(C)cc1NC(=O)CSc1ccc(-c2ccco2)nn1,"inconclusive: 26.9 µM [inhibitor, single point]",
Cc1nc(C)c(-c2ccc(SCC(=O)Nc3ccc(Br)cc3)nn2)s1,"inconclusive: 26.9 µM [inhibitor, partial curve]",
O=C(Nc1ccc2oc(-c3ccccc3)nc2c1)c1cccs1,active: 3.79 µM,
COc1ncccc1-c1nnn(-c2ccc(F)cc2)n1,active: 5.36 µM,
CN(c1ccc(C(=O)Nc2nccs2)cc1)S(=O)(=O)c1ccccc1,"inconclusive: 23.9 µM [inhibitor, single point]",
COc1ccc(C=O)cc1COc1ccc(C)cc1[N+](=O)[O-],"inconclusive: 13.5 µM [inhibitor, partial curve, poor fit]",
COc1ccccc1NC(=O)c1cnc(SCC(=O)NCC2CCCO2)n(C)c1=O (centres undefined),active: 5.36 µM,
CCn1c(C)c(C2N3CC4(C)CN2CC(C)(C3)C4=O)c2ccccc21 (centres undefined),,inactive: -2.5%
COc1ccccc1C(=O)NNC1=NS(=O)(=O)c2ccccc21,"inconclusive: 33.8 µM [inhibitor, partial curve, poor fit]",
CCCc1cc(-c2n[nH]c(=S)n2-c2cccc(C)c2)cs1,"inconclusive: 37.9 µM [inhibitor, single point]",
O=C(CC(Sc1ccccc1)c1cccs1)c1ccco1 (centres undefined),"inconclusive: 13.5 µM [inhibitor, partial curve]",
CC1(C)Cc2c(c(N3CCCC3)nc3sc(C(=O)Nc4ccccc4)c(N)c23)CO1,"inconclusive: 37.9 µM [inhibitor, partial curve, poor fit]",
O=C(Nc1ccc(NC(=O)C2CC2)nc1)c1ccccc1F,"inconclusive: 37.9 µM [inhibitor, partial curve, poor fit]",
COc1cc(CCCN2C(=S)NC[C@@H]2c2ccccc2)cc(OC)c1OC,,inactive: 2.47%
CN(c1cccc(NC(=O)c2ccc(N(C)S(=O)(=O)c3ccccc3)cc2)c1)S(C)(=O)=O,,inactive: -13.4%
NC(N)=Nc1nc2cc([N+](=O)[O-])ccc2o1,"inconclusive: 37.9 µM [inhibitor, partial curve, poor fit]",
COc1cc(OC)cc(-c2cc3nc(C)c(CCC(=O)Nc4nc(C)cs4)c(C)n3n2)c1,"inconclusive: 26.9 µM [inhibitor, partial curve, poor fit]",
CC(C)c1ccc(C2=CC(c3ccc(C(C)C)cc3)n3nnnc3N2)cc1 (centres undefined),active: 2.69 µM,
